Assay results published in the supplement of paper PMC12217912.
Some of the results follow. The full chains were built here from the parent and the listed change. Inactive controls read about 0.05.

B1: TEV protease; numbered along this chain (parent)
chain: MGESLFKGPRDYNPISSSICHLTNESDGHTTSLYGIGFGPFIITNKHLFRRNNGTLVVQSLHGVFKVKDTTTLQQHLVDGRDMIIIRMPKDFPPFPQKLKFREPQREERICLVTTNFQTKSMSSMVSDTSCTFPSGDGIFWKHWIQTKDGQCGSPLVSTRDGFIVGIHSASNFTNTNNYFTSVPKNFMELLTNQEAQQWVSGWRLNADSVLWGGHKVFMVKPEEPFQPVKEATQL

Variants of: B1
Test: raw area under fraction-flipped curve 0-4 h after induction (AUC4h, not background-subtracted), DNA-recorder readout of cleavage of the substrate (dimensionless); higher = more cleavage of the substrate by the protease variant
Conditions: temperature: 34 °C; time window: 0-4 h after rhamnose induction
Protocol: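 In vivo DNA recorder in E. coli TOP10(DE3) ΔrhaA at 34 °C. Each TEVp single-site mutant (parent TEVp 0) is paired with a single-site variant of the 7-mer TEVs (canonical ENLYFQ|S). The substrate sits between flexible linkers in a Bxb1-sfGFP-TEVs-SsrA fusion, so cleavage stabilises Bxb1 and speeds flipping of a recombination array, read by NGS. The value is the raw area under the fraction-flipped curve over 0-4 h after rhamnose induction (AUC4h), with ≥20 reads per time point. It is not background-subtracted; inactive controls average about 0.047.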
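Note: Bxb1 expression induced with 0.2% (w/v) L-rhamnose at OD600 near 0.5, cultures sampled hourly, flipped fraction per protease–substrate barcode pair counted by paired-end Illumina sequencing.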

Variant	area with substrate EALYFQS	area with substrate ECLYFQS	area with substrate EDLYFQS	area with substrate EILYFQS	area with substrate EKLYFQS	area with substrate ELLYFQS	area with substrate EMLYFQS	area with substrate EPLYFQS	area with substrate EQLYFQS	area with substrate ESLYFQS	area with substrate EVLYFQS	area with substrate EWLYFQS	area with substrate EELYFQS	area with substrate EFLYFQS	area with substrate EGLYFQS	area with substrate EHLYFQS	area with substrate ERLYFQS	area with substrate ETLYFQS	area with substrate EYLYFQS
A232R	0.117	0.121	0.121	0.0815	0.112	0.0952	0.118	0.117	0.102	0.107	0.111	0.0849	–	–	–	–	–	–	–
N45Y	0.0536	0.0637	0.0562	0.06	0.06	0.0544	0.0599	0.0583	0.064	0.0559	0.0521	0.0534	0.0595	0.052	0.0567	0.0336	0.0659	0.0582	–
G80D	0.122	–	0.144	0.126	0.118	–	0.143	–	0.165	0.119	0.106	0.115	–	–	–	–	0.134	–	–
R160F	0.152	0.122	0.143	0.0828	–	0.151	0.0932	0.142	0.134	0.111	0.108	0.139	0.101	–	–	0.144	0.146	–	0.0952
M219A	0.0788	0.0899	–	0.0817	0.115	0.0894	0.102	0.116	0.122	0.0875	0.0875	0.108	–	0.0931	–	0.11	0.0665	0.138	0.115
L56G	0.0663	–	0.0688	0.0406	0.0493	0.0552	0.0487	–	0.044	0.0577	0.0503	–	–	–	0.0515	0.0246	0.0557	0.0487	0.0603
A207S	0.105	0.13	0.13	0.117	0.122	0.122	0.121	0.105	0.1	0.108	0.0939	–	0.119	0.0978	0.108	0.0814	0.104	–	0.101
M88R	0.0628	0.0665	0.0507	0.0605	0.036	–	0.0763	0.0654	0.0466	0.101	0.0479	0.0403	–	–	0.0479	–	0.0324	–	–
L112T	0.0744	0.062	–	0.0507	0.068	0.0776	–	0.0911	0.0695	0.0707	0.0633	–	0.0773	0.0863	–	0.0694	0.0846	0.0757	–
D208M	0.0614	–	–	0.0721	0.0663	0.0903	0.0869	–	0.104	0.0777	0.0683	–	0.0844	0.0566	0.0826	0.108	–	0.0959	–
M88F	0.0979	–	–	0.0648	–	–	–	–	0.093	–	0.0721	0.0738	–	0.0567	0.0935	–	–	0.0544	0.072
L33K	0.057	–	0.0584	0.0614	0.0655	–	0.0469	–	0.0666	0.0602	0.0572	–	0.0735	0.0559	–	0.0509	–	0.0888	0.0767
W212V	0.124	0.11	0.138	0.119	0.134	0.149	0.129	–	0.133	0.115	0.102	0.104	0.145	0.122	0.0834	0.087	0.158	–	–
T55V	0.116	0.106	0.103	0.0799	0.106	0.122	–	–	0.111	0.107	0.0932	–	0.115	–	0.096	0.132	0.0846	–	–
M125D	0.121	0.092	0.105	0.085	0.0966	0.094	0.103	–	0.105	0.114	0.0961	–	0.118	0.106	0.0803	0.0985	–	0.093	–
R102I	0.0635	0.0459	0.0417	0.0484	0.0419	0.0526	0.0595	0.0503	0.0496	0.0531	0.0556	0.0612	0.0524	0.0683	0.0519	0.0541	0.0458	0.0358	–
I167G	0.0642	0.0602	0.0599	–	–	–	–	0.057	–	0.055	–	–	0.0617	0.0433	–	–	0.0529	–	–
Y179M	0.0622	–	–	0.0534	–	0.0711	0.0573	–	–	0.11	–	0.0631	0.0638	–	0.0559	0.048	0.0308	–	–
N13Q	0.115	0.108	0.13	0.115	0.109	–	0.117	0.151	0.128	0.119	0.0991	0.0965	0.148	0.125	0.119	0.122	0.0914	0.107	0.11
G37Q	0.0804	0.0875	0.0711	0.0631	0.0732	0.0739	0.0719	0.0927	–	0.0672	–	0.0688	0.115	0.0773	0.0699	0.0465	0.0724	–	–
F187P	0.0657	0.0501	–	0.0474	0.0562	–	0.049	0.0586	0.0657	0.0514	0.0838	0.0521	0.0591	–	0.0402	0.0594	0.0568	0.0565	–
S32V	0.0978	0.0946	0.107	0.0748	0.0998	–	0.0931	0.102	0.0937	0.0942	0.0362	0.113	0.113	0.092	–	0.101	0.113	0.106	–
L112V	0.0964	0.118	–	0.101	0.114	0.0566	–	0.0985	0.0922	0.0788	0.0914	–	–	0.0883	–	–	0.0996	–	–
H29F	0.115	–	–	0.0749	0.114	–	0.107	–	0.0993	0.112	0.117	–	0.108	–	0.132	0.114	–	–	–
P184Q	0.0992	0.0882	0.0907	0.081	0.0738	–	–	–	0.0918	0.0727	0.0707	0.0828	–	0.0712	0.0682	0.0943	0.0727	–	0.106
